# In article PMC4336329 (PLoS ONE, 2015):
# In all, about 310,000 compounds went through this assay and about 2,200 (0.71%) showed an effect of 50% or more. The effect is printed as a negative number. The list shows a part of the results.
# Target: human ether-à-go-go-related gene (hERG) potassium channel (human, UniProt Q12809)
# Experiment: primary screen, population patch clamp on CHO cells stably expressing hERG
# human ether-à-go-go-related gene (hERG) potassium channel, sequence (Q12809 whole entry, looked up): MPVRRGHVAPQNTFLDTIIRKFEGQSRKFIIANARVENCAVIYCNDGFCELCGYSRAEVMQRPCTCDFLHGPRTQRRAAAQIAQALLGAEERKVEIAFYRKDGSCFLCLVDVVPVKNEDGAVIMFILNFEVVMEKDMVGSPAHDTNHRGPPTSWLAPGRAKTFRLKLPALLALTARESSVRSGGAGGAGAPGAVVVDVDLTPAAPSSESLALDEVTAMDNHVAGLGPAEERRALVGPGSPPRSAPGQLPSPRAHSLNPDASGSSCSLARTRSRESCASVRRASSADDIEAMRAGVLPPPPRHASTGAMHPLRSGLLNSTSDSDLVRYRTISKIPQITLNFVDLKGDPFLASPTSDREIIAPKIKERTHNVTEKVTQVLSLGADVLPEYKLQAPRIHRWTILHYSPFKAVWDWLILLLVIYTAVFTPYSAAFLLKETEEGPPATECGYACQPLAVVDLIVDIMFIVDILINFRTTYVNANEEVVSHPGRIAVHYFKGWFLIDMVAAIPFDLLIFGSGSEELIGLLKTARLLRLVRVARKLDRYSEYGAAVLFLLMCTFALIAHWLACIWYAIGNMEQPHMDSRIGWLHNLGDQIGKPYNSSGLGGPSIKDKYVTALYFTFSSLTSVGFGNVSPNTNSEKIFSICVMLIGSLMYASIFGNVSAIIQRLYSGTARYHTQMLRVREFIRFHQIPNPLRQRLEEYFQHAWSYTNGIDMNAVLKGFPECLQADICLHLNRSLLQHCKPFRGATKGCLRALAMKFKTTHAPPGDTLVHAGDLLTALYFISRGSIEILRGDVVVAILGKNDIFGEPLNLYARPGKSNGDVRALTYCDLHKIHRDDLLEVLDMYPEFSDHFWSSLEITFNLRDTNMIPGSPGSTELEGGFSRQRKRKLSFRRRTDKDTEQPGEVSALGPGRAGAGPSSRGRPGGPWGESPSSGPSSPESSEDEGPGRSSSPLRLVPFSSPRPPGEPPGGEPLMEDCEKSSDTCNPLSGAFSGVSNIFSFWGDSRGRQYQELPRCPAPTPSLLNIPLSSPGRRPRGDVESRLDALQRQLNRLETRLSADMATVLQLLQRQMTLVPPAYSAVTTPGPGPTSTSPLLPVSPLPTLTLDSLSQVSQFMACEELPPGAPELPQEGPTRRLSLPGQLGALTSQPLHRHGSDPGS
row,SMILES,"hERG current change (%, negative = inhibition) at 1uM [%]"
1,COc1cc2c(cc1OC)[C@H](C)N(C(=O)CSc1nc(O)c(C(C)C)c(=O)[nH]1)CC2,6.61
2,CCC[N+](CC#Cc1ccccc1)(CCC)CC(=O)c1ccc(Cl)cc1,-9.39
3,C=CCNC(=S)N1CCC(C(=O)c2ccc(OC)cc2)CC1,-3.09
4,COC(=O)C1=CN(Cc2ccc(F)cc2)C=C(C(=O)OC)C1c1ccc(O)c(OC)c1,6.53
5,CCN(CC)c1ccc(C2N(C(=O)N3CCOCC3)CCN2S(=O)(=O)c2ccc(C)cc2)cc1 (stereo not shown),1.26
6,CCOC(=O)C1CCN(C2CCN(Cc3nc(-c4ccccc4)no3)CC2)CC1,-38.2
7,O=C(CSc1nnc(C2CC2)n1CC1CCCO1)Nc1cccc(Cl)c1 (stereo not shown),-2.01
8,CC(C)c1ccc(N=Cc2c(O)c3ccccc3oc2=O)cc1,13.1
9,COc1ccc(N(Cc2cc3cccc(C)c3[nH]c2=O)S(=O)(=O)c2ccc(Cl)cc2)cc1,10.7
10,Cc1cccc(N2C(=O)/C(=C/c3ccc(N4CCN(C)CC4)o3)C(=O)NC2=S)c1C,13.9
11,CCn1c(-c2cccc(S(=O)(=O)N3CCCC3)c2)n[nH]c1=S,1.5
12,CN(C)S(=O)(=O)c1cccc(NC(=O)c2cc(=O)[nH]c3ccccc23)c1,4.2
13,O=C1CC(NC23CC4CC(CC(C4)C2)C3)C(=O)N1c1ccc2c(c1)OCO2 (stereo not shown),9.1
14,O=C(CNC(=O)c1ccc(Cl)cc1Cl)OCN1C(=O)c2ccccc2C1=O,8.3
15,O=C(NCc1ccccc1CN1CCCC1)c1cccc(S(=O)(=O)Nc2ccc(F)cc2)c1,-35.7
16,CCCc1cc(=O)[nH]c(SCC(=O)NC2(C#N)CCCCC2)n1,5.65
17,CCOC(=O)c1c(NC(=O)CCC(=O)N2CCOCC2)sc2c1CC(C)(C)OC2,3.56
18,O=C(O)c1cc(=O)n(Cc2ccccc2)c(=O)[nH]1,9.85
19,Cc1ccc(SCc2noc(C(=O)NC(C)C)c2C(=O)O)cc1C,14
20,COc1ccc(CCN2CCCn3c2nc2c3c(=O)n(CC(C)C)c(=O)n2C)cc1OC,2.4
21,COc1cc(C(=O)NCC2(c3ccccc3)CCCC2)ccc1OC(C)C,9.95
22,CCOC(=O)C(NC(=O)Nc1ccc(Cl)cn1)(Oc1ccccc1)C(F)(F)F (stereo not shown),4.85

row,SMILES,"hERG current change (%, negative = inhibition) at 1uM [%]"
1,Cc1cccc(OCC(=O)Nc2nc3ccc([N+](=O)[O-])cc3s2)c1C,15.6
2,CN(Cc1ccccc1F)C(=O)CNC(=O)Cc1cccc2ccccc12,8.46
3,O=C(NCCNS(=O)(=O)c1ccc(Cl)cc1)c1cc(OCC(F)(F)F)ccc1OCC(F)(F)F,11.7
4,Cc1ccc(Cl)cc1N(CC(=O)NC(C)c1ccccc1)S(C)(=O)=O (stereo not shown),16.6
5,CN(CCN1CCc2ccccc2C1)Cc1nc(-c2ccc3c(c2)OCO3)no1,-13
6,CC1CC(C)CN(CCCNC(=O)c2cc3c(=O)[nH]c4ccccc4c3n2C)C1 (stereo not shown),15.1
7,Cc1cccc(N(CC(O)CN2CCCC2)S(=O)(=O)c2ccccc2)c1 (stereo not shown),-35.3
8,Cc1ccc(C(=O)CNc2ccc(C)cc2C)cc1,16.1
9,O=C(c1coc(=O)c(Br)c1)N1CCC(C(O)(c2ccccc2)c2ccccc2)CC1,9.97
10,Cc1cccc(NC(=O)CN2C(=O)c3ccccc3S2(=O)=O)n1,17.1
11,CCC(C)(C)NC(=O)C(c1ccccc1)N(Cc1cccs1)C(=O)Cn1nnc2ccccc21 (stereo not shown),11.1
12,O=C(c1cccc([N+](=O)[O-])c1)c1ccc2c(c1)OCCOCCOCCO2,-9.73
13,CCn1c(-c2cccs2)nc2ccccc21,-1.08
14,COc1ccccc1CN=C1NC(=O)C(CC(=O)Nc2ccc(OC)c(OC)c2)S1 (stereo not shown),14.5
15,Cc1ccc(/C=N/NC(=O)Cc2c[nH]c3ccccc23)c(C)c1,12.6
16,O=C(Cc1csc(Nc2nc(=S)[nH]c3ccccc23)n1)NCCCN1CCN(c2ccccc2F)CC1,8.64
17,COc1ccccc1Nc1nc(-c2ccccc2O)nc2ccccc12,12.4
18,COC(=O)CSc1nc(N)c(NC(=O)c2ccc(OC)c(OC)c2)c(=O)[nH]1,20.4
19,COc1ccc2c(c1)nc(SCC(=O)c1cccs1)n2C,12.3
20,Cc1cc2nc(/C(C#N)=C\c3ccc(-c4ccccc4C(=O)O)o3)[nH]c2cc1C,15.5
21,COc1cc(C(=O)N2CCC(NC(=O)C(Cc3ccccc3C)NC(C)=O)CC2)cc(OC)c1OC (stereo not shown),6.3
22,O=C(Cn1c(=O)oc2ccccc21)Nc1cccc(Cl)c1,3

row,SMILES,"hERG current change (%, negative = inhibition) at 1uM [%]"
1,CCNC(=S)N(CCc1c(C)[nH]c2ccc(C)cc12)Cc1cccs1,9.67
2,CCn1cc(CN2CCCC(C(=O)c3cccc(OC)c3)C2)c(C)n1 (stereo not shown),0.377
3,CCCCOc1cccc(C(=O)Nc2ccc(S(=O)(=O)Nc3cc(C)on3)cc2)c1,6.16
4,COc1ccc(N2CCN(C(CNC(=O)C(=O)NC3CCCC3)c3ccco3)CC2)cc1 (stereo not shown),1.68
5,O=C(NCc1ccccn1)c1ccc2c(=O)n(CCc3ccccc3)c(=O)[nH]c2c1,10.2
6,O=C(NCc1cccs1)c1cc(S(=O)(=O)N2CCOCC2)ccc1N1CCCC1,-12.1
7,Cc1cc(O)c(-c2ccno2)cc1Cl,10.2
8,Cc1c(NC(=O)/C=C/c2cn(-c3ccccc3)nc2-c2ccc(F)cc2)c(=O)n(-c2ccccc2)n1C,14.9
9,CNC(=O)NNC(=O)c1onc(-c2c(Cl)cccc2Cl)c1C(=O)OC,3.79
10,Cn1cccc1CC(=O)N/N=C/c1cccc2ccccc12,5.44
11,COc1cc(NC(=S)N2CCN(c3ccccn3)CC2)cc(OC)c1OC,6.3
12,O=C(Cn1cnc2c(nnn2-c2ccccc2)c1=O)N1CCOCC1,9.34
13,COc1ccc(CCNC(=O)C2CCN(c3ccc(N4CCOCC4)nn3)CC2)c(OC)c1,15.6
14,Cc1ccc(C)c(S(=O)(=O)N2CCN(C(=O)c3ccc(N4CCCC4)c([N+](=O)[O-])c3)CC2)c1,10.8
15,C=CCn1cc(C(=O)c2cc(Br)ccc2O)cc(C#N)c1=O,5.08
16,O=C(COc1ccc(F)cc1)N1CCCc2ccccc21,15.9
17,Cc1ccccc1NC(=O)C1CC(=O)N(c2ccc3c4c(cccc24)CC3)C1 (stereo not shown),7.22
18,CC(Sc1nnc(Cc2cccs2)n1C1CCCCC1)C(=O)NCc1ccco1 (stereo not shown),0.643
19,C=CCn1c(C)c(C(C)=O)c(N2CCN(C(c3ccccc3)c3ccccc3)CC2)nc1=S,10.3
20,CCOC(=O)C(=O)/C(C#N)=C/Nc1ccc(Cl)cc1,10.5
21,CCOC(=O)C1CCCN(C(c2ccccn2)c2c(C)[nH]c3ccccc23)C1 (stereo not shown),14.3
22,Cc1cc(Cl)ccc1OCC(=O)NC(=S)Nc1ccc(Cl)cn1,11

row,SMILES,"hERG current change (%, negative = inhibition) at 1uM [%]"
1,COc1ccc(OCCOC(=O)C(C)NS(=O)(=O)c2ccc(NC(C)=O)cc2)cc1 (stereo not shown),14
2,Cc1c(/C=N/Nc2ccc(C(=O)O)cc2)c2ccccc2n1C,9.56
3,Cc1cc(C)nc(NC(=O)c2ccc(Cl)cc2Cl)n1,2.13
4,Cc1c(Cl)cccc1NC(=O)c1cc(C2CC2)on1,5.83
5,C#CCOCCOCCOCCNc1nc(N2CCN(C(=O)[C@H]([C@@H](C)CC)n3cc([C@@H](N)CO)nn3)CC2)nc(N2CCN(C(=O)[C@H](Cc3ccc(O)cc3)n3cc([C@@H](N)C(C)CC)nn3)CC2)n1.Cl (stereo partly shown),14.5
6,CCCSc1cc(N)cc([N+](=O)[O-])c1,-4.52
7,CN(C)S(=O)(=O)N1CCC(CO)(Cc2cccc(C(F)(F)F)c2)CC1,-1.27
8,CC(=O)N1CSCC1C(=O)NNS(=O)(=O)c1ccccc1 (stereo not shown),9.31
9,CC(Sc1nccn1C)C(=O)NC1(C#N)CCCCC1 (stereo not shown),6.36
10,O=C(CN(Cc1ccco1)C(=O)c1ccc(Cl)cc1)Nc1c(Cl)cc(Cl)cc1Cl,10.8
11,COc1ccccc1NC(=O)NNC(=O)c1ccc2ccccc2c1,18.4
12,O=C(NCCO)c1cc([N+](=O)[O-])cc2c1C=Cc1ccccc1O2,-5.21
13,CC1CCCN(CCOCCOc2ccc(Br)cc2Cl)C1.O=C(O)C(=O)O (stereo not shown),-7.22
14,COc1cccc(/C=N/n2nnnc2N)c1,13.9
15,CCOC(=O)/C=C(\C)Nc1cc(C)nn1-c1ccccc1,12.4
16,CCC(C)[C@@H](C(=O)N1CCNCC1)n1cc(CCCCN)nn1.Cl (stereo partly shown),27.6
17,COc1cc(S(=O)(=O)N2CCN(C(=O)c3ccco3)CC2)ccc1Cl,8.83
18,O=C(O)c1cccc2c1C(=O)c1ccc(N3CCCC3)cc1S2(=O)=O,18.7
19,COc1ccc(NC(=O)Cn2nc(C(=O)O)c3ccccc3c2=O)cc1Cl,17.2
